Test results from patent publication US20250361279A1 (Hoffmann-La Roche, published 2025).

Columns and labels:
[1] = biological target: T1, human huPD1-ECD_Fc (P1AD9704) (human, UniProt Q15116 in part); experiment: SPR Biacore T200, sample captured by anti-PGLALA, huPD1-ECD-Fc injected; sample stressed 2 w/pH 7.4 +37°C
T1 construct: extracellular domain; In-house reagent; not shown: Fc part

[2] = biological target: T2, IL-7 receptor (IL-7R alpha chain and common gamma chain) on human T cells (human, UniProt P16871 21-459; P31785 23-369); experiment: flow cytometry, fresh PBMCs, naive (TCF-1+ PD-1-) CD4 T cells
T2 construct: whole, on cells; Endogenous receptor on CD4 and CD8 T cells of healthy donors; also called IL-7Rα; CD127
T2 sequence (looked up) 1: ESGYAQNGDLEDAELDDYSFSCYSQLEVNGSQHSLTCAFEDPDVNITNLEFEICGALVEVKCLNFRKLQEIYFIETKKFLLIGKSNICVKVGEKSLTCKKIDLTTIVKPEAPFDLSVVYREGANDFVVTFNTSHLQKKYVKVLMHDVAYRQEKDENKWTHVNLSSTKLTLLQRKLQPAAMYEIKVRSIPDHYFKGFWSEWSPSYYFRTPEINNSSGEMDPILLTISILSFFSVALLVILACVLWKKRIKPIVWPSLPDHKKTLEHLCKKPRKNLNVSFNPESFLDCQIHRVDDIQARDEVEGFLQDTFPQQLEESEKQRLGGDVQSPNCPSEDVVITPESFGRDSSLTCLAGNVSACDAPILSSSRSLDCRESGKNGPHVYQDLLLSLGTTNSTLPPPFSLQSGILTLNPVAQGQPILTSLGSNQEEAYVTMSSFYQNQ
T2 sequence (looked up) 2: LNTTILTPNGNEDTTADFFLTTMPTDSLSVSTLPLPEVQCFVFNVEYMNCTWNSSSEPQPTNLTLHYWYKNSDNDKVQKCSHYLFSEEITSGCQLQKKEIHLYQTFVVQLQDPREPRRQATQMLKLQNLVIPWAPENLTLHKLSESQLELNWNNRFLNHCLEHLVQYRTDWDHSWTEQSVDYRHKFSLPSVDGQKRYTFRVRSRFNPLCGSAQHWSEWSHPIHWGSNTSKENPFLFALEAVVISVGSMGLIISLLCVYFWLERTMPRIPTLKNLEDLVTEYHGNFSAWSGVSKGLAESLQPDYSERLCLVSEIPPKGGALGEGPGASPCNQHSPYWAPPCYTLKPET

[3] = biological target: T1, human huPD1-ECD_Fc (P1AD9704); experiment: SPR Biacore T200, sample captured by anti-PGLALA, huPD1-ECD-Fc injected; sample 2 w/pH 6.0, -80°C (reference)
[4] = biological target: T2, IL-7 receptor (IL-7R alpha chain and …); experiment: cell-based or functional assay
[5] = biological target: T2, IL-7 receptor (IL-7R alpha chain and …); experiment: cell-based or functional assay; remark: listed apart in the source
[6] = biological target: T3, human PD-1 on activated CD4 T cells (human, UniProt Q15116 25-288); experiment: cell-based or functional assay
[7] = biological target: T2, IL-7 receptor (IL-7R alpha chain and …); experiment: flow cytometry, fresh PBMCs, naive (TCF-1+ PD-1-) CD8 T cells; parameters: unit not given beside the values
[8] = biological target: T2, IL-7 receptor (IL-7R alpha chain and …); experiment: as above
[9] = biological target: T2, IL-7 receptor (IL-7R alpha chain and …); experiment: flow cytometry, fresh PBMCs, bystander (PD-1- TCF-1-) CD4 T cells; parameters: unit not given beside the values
[10] = biological target: T2, IL-7 receptor (IL-7R alpha chain and …); experiment: cell-based or functional assay; remark: listed apart in the source
[11] = biological target: T2, IL-7 receptor (IL-7R alpha chain and …); experiment: flow cytometry, fresh PBMCs, bystander (PD-1- TCF-1-) CD8 T cells; parameters: unit not given beside the values
[12] = biological target: T2, IL-7 receptor (IL-7R alpha chain and …); experiment: cell-based or functional assay; remark: listed apart in the source
[13] = biological target: T3, human PD-1 on activated CD4 T cells; experiment: cell-based or functional assay; remark: listed apart in the source
[14] = biological target: T4, human IL7Rα-IL2Rg-Fc (P1AF4984) (human, UniProt P16871 21-239; P31785 23-262, limits assumed); experiment: SPR Biacore T200, sample captured by anti-PGLALA, IL7Ra-IL2Rg-Fc injected; sample stressed 2 w/pH 6.0, +40°C
T4 construct: In-house heterodimeric Fc fusion; also called IL7Ra-IL2Rg-Fc; human IL7Ralpha-IL2Rgamma-Fc heterodimer; not shown: Fc part
T4 sequence (looked up) 1: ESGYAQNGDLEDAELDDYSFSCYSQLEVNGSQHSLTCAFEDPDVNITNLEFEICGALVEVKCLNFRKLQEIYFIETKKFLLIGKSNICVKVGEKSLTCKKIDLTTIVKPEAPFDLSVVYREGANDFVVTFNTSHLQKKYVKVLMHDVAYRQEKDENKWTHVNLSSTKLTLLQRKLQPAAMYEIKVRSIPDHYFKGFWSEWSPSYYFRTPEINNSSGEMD
T4 sequence (looked up) 2: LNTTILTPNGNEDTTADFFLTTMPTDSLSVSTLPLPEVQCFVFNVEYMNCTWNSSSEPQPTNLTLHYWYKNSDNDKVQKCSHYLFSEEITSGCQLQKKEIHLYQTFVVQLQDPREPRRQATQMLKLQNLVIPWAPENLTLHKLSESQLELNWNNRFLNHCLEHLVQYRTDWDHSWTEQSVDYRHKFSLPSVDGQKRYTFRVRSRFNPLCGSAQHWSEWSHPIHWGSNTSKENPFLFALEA

B1: P1AI5587 (PD1-IL7v2.6, fully glycosylated; de-risked PD1 binder FV020519; IL7 E13K, G85E; (G2SG2)3 linker) (other)
light: DIVMTQSPDSLAVSLGERATINCKASESVDTSDNSFIHWYQQKPGQSPKLLIYRASTLESGVPDRFSGSGSGTDFTLTISSLQAEDVAVYYCQQNYDVPWTFGQGTKVEIKRTVAAPSVFIFPPSDEQLKSGTASVVCLLNNFYPREAKVQWKVDNALQSGNSQESVTEQDSKDSTYSLSSTLTLSKADYEKHKVYACEVTHQGLSSPVTKSFNRGEC
heavy 1: EVQLLESGGGLVQPGGSLRLSCAASGFSFSSYTMSWVRQAPGKGLEWVSAISGGGRDIYYPDSVKGRFTISRDNSKNTLYLQMNSLRAEDTAVYYCVLLTGRVYFALDSWGQGTLVTVSSASTKGPSVFPLAPSSKSTSGGTAALGCLVKDYFPEPVTVSWNSGALTSGVHTFPAVLQSSGLYSLSSVVTVPSSSLGTQTYICNVNHKPSNTKVDKKVEPKSCDKTHTCPPCPAPEAAGGPSVFLFPPKPKDTLMISRTPEVTCVVVDVSHEDPEVKFNWYVDGVEVHNAKTKPREEQYNSTYRVVSVLTVLHQDWLNGKEYKCKVSNKALGAPIEKTISKAKGQPREPQVCTLPPSRDELTKNQVSLSCAVKGFYPSDIAVEWESNGQPENNYKTTPPVLDSDGSFFLVSKLTVDKSRWQQGNVFSCSVMHEALHNHYTQKSLSLSPG
heavy 2: EVQLLESGGGLVQPGGSLRLSCAASGFSFSSYTMSWVRQAPGKGLEWVSAISGGGRDIYYPDSVKGRFTISRDNSKNTLYLQMNSLRAEDTAVYYCVLLTGRVYFALDSWGQGTLVTVSSASTKGPSVFPLAPSSKSTSGGTAALGCLVKDYFPEPVTVSWNSGALTSGVHTFPAVLQSSGLYSLSSVVTVPSSSLGTQTYICNVNHKPSNTKVDKKV[sequence of human IgG1 Fc with changes omitted]GGSGGGGSGGGGSGGDCDIEGKDGKQYKSVLMVSIDQLLDSMKEIGSNCLNNEFNFFKRHICDANKEGMFLFRAARKLRQFLKMNSTGDFDLHLLKVSEETTILLNCTGQVKGRKPAALGEAQPTKSLEENKSLKEQKKLNDLCFLKRLLQEIKTCWNKILMGTKEH
notes: Immunoconjugate: anti-PD-1 IgG1 (FV020519), knob-into-hole, PGLALA; IL-7 variant fused to the C-terminus of the knob heavy chain; Several batches of the same construct were tested; the batch is named in the rows; also called P1AI5587-007 (transient); P1AI5587-270 (transient)
Relative Active Concentration (RAC), binding relative to the non-stressed sample [1]: 114%
fold reduction in binding compared to P1AF7303 [2]: 48.1 fold
Relative Active Concentration (RAC), binding relative to the non-stressed sample [3]: 100%
EC50[active]/EC50 [active PD1-IL7wt] (batch P1AI5587-468) [4]: 8.3 fold
EC50[fresh]/EC50 [fresh PD1-IL7wt] (batch P1AI5587-468) [4]: 682 fold
Potency reduction to PD1-IL7wt: EC50 (PD1+)/EC50 (PD1-IL7wt) (batch P1AI5587-007) [5]: 2.6 fold
Cis-delivery: fold increase in EC50, EC50 [with PD1bl]/EC50 [no PD1bl] (batch P1AI5587-007) [6]: 59.6 fold
AUC of dose-response binding (frequency of anti-PGLALA+ cells) [7]: 10
fold reduction in binding compared to P1AF7303 [8]: 39.6 fold
AUC of dose-response binding (frequency of anti-PGLALA+ cells) [9]: 9.8
fold decrease in STAT-5P potency on PD-1- T cells relative to P1AH4515 [10]: 66 fold
fold decrease in STAT-5P potency on PD-1- T cells relative to P1AH4515 (P1AI5587 from stable transfection) [10]: 250 fold
AUC of dose-response binding (frequency of anti-PGLALA+ cells) [11]: 37.9
Potency reduction to PD1-IL7wt: EC50 (PD1+)/EC50 (PD1-IL7wt) (batch P1AI5587-270, transient) [12]: 16.7 fold
Potency reduction to PD1-IL7wt: EC50 (PD1+)/EC50 (PD1-IL7wt) (batch P1AI5587-468, stable) [12]: 6.1 fold
Cis-delivery: fold increase in EC50, EC50 [with PD1bl]/EC50 [no PD1bl] (batch P1AI5587-270, transient) [13]: 118 fold
Cis-delivery: fold increase in EC50, EC50 [with PD1bl]/EC50 [no PD1bl] (batch P1AI5587-468, stable) [13]: 80.6 fold
Relative Active Concentration (RAC), binding relative to the non-stressed sample [14]: 114%
